The record followed here is paper PMC4207660, “Identification and Characterization of Hundreds of Potent and Selective Inhibitors of Trypanosoma brucei Growth from a Kinase-Targeted Library Screening Campaign” (PLoS Neglected Tropical Diseases, 2014).

What is called logD is lipophilicity at a set pH, counting ionised and neutral species. The Papp is a coefficient for how fast a substance crosses the barrier.

One series is described as follows: ChromlogD assay. Here is the method: The Chromatographic Hydrophobicity Index (CHI)[22] values were measured using reversed phase HPLC column (Luna C18 (2), Phenomenex, UK) with a fast acetonitrile gradient at starting mobile phase of pH = 7.4. CHI values are derived directly from the gradient retention times by using a calibration line obtained for standard compounds. The CHI value approximates to the volume % organic concentration when the compound elutes. […] The average error of the assay is ±3 CHI unit or ±0.25 ChromlogD.

For another series, the system named is T. brucei. The class given is cell-based, Trypanosoma brucei brucei. Here is the method:
100 nL per well from master plates were stamped in final assay black, clear-bottom 384-well Greiner microplates, including controls of 0% response (DMSO) and 100% response (2 μM Pentamidine): the final assay concentration was 20 μM. Plates containing DMSO were included randomly in the assay, to assess quality through all process. […] After 18 hours incubation, plates were centrifuged in a centrifuge (Beckman Coulter) for 5 min at 500 g, to sediment the cells, supernatant was aspirated with a Cybio-Well dispenser (Cybio), and 40 μL/well of fresh prewarmed HMI-9 were added: this cycle was performed three times. After the last cycle, 10 μL/well of cells suspension were aspirated by Cybio-Well equipment and dispensed over 40 μL of fresh prewarmed HMI-9 in “recovery plates”: calculated maximal residual concentration was 32 nM. […] Assay […] quality was determined by Z' score and validated data set were analyzed with ActivityBase software. As previous described percentage of inhibition was calculate for each concentration based on controls. A 4-parameter equation was used to fit the dose-response curves and pEC50 determination. The potential effect of residual drug remaining after washes was evaluated by performing the same protocol with standard trypanocidal drugs (such as suramin and diminazene) and negligible effect was observed. […]

The subject of series [1] is T. brucei brucei parasites (Lister 427 strain). As to the kind of experiment: Dose response growth inhibition assay (resazurin, 72 h). The class given is cell-based. To be noted: Trypanosoma brucei. On the procedure:
Greiner sterile black clear bottom 384-well assay plates were pre-dispensing with 200 nL of compound in each well, from master plates at 1 mM (100% DMSO) containing selection from the GSK compound collection. Controls of 0% response (control 1, 200 nL of 100%DMSO) and 100% response (control 2, 200 nL of 1 mM pentamidine) were included in each assay plate in columns 6 and 18, respectively. Plates containing 200 nL of 100% DMSO were included randomly in the assay, to assess quality through all process. […] After this period, 10 µL of 200 µM resazurin solution in prewarmed HMI-9 were added to each well, and plates were allowed to incubate 2 hours more prior fluorescence reading in a Wallac EnVision Multilabel Plate Reader (Perkin-Elmer). Raw fluorescent data from the Envision plate reader were uploaded into GSK HTS database (ActivityBase). Activity of each well was normalized as a percentage of inhibition per-plate basis using the following equation: [drawing 1]
For dose-response experiments, serial compound dilutions of selected hits from the primary campaign were plotted against compound concentration. Dose response master plates were prepared by 3-fold dilutions (starting with 10 mM DMSO stock solutions), providing 11 concentrations. From these master plates, 200 nL per well was stamped in final assay plates, including the same controls describe in the primary single shot assay. […]
In general terms: Alamar Blue is a resazurin reagent that responds to reducing activity.

In series [2] the target is T1, Human Serum Albumin (HSA) (Homo sapiens, UniProt P02768).
T1 construct: purchased Chiral Technologies, France
As to the kind of experiment: Protein binding assay (HPLC stationary phase), HSA. The class given is in vitro ADME. To be noted: Measured. On the procedure:
Chemically bonded Human Serum Albumin (HSA) and Alpha-1-acidglycoprotein HPLC stationary phases (Chiral Technologies, France) were used for measuring compounds' binding to plasma proteins, applying linear gradient elution up to 30% iso-propanol. The run time was 6 min, including the re-equilibration of the stationary phases with the 50 mM pH7.4 ammonium acetate buffer. The obtained gradient retention times were standardised using a calibration set of mixtures as described in the references. The average standard error of the assay depends on the binding strength and kinetics of the compounds.

Another series addresses Cytochrome P450 (CYP450) (Homo sapiens, UniProt P08684). The experiment in a line: Cytochrome P450 inhibition profile. To be noted: Measured. The class given is in vitro ADME. On the procedure:
The P450 inhibition profile of the inhibitors was determined as previously described.

Series [3] can be described thus: GSK in-house artificial membrane permeability assay. The class given is in vitro ADME. The following applies: PAMPA, pH 7.4, Measured. On the procedure:
250 µL and 100 µL 50 mM phosphate buffer pH 7.4 with 0.5% encapsin was applied to the donor and receiver compartments, respectively. 2.5 µL of a 10 mM stock solution of compound in DMSO was added to the donor compartment. The assay was incubated at RT for 3 hours. […] The permeability (logPapp) measures how fast molecules pass through the lipid membrane is expressed in nm/s.

A short description of series [4]: CLND kinetic solubility assay. It counts as physicochemical. The following applies: phosphate buffered saline, pH 7.4, aqueous buffer, kinetic from dmso stock; Measured; read-out: Aq Sol. Here is the method: 5 µL of 10 mM DMSO stock solution was diluted to 100 µL with pH 7.4 phosphate buffered saline, equilibrated for 1 hour at room temperature, filtered through Millipore MultiscreenHTS-PCF filter plates (MSSL BPC). The filtrate was quantified by suitably calibrated flow injection Chemi-Luminescent Nitrogen Detection.

Converted amounts (≈) assume the structure as drawn. Where two headings read alike, the source gives them in different places.

`Clc1ccc(C2c3ccccc3Cc3nncn32)cc1` (stereo not shown) [NEU-0001097] yielded a logD in “ChromlogD assay” (reversed-phase HPLC column (Luna C18 (2)), pH 7.4) of 5.35. For the same compound, the “Cidal?” value with T. brucei was “N (No)”. The EC50 in series [1] (72 h, read-out: pEC50 (converted)) was 457 nM.
For the compound `NCC(Cc1ccccc1)C(=O)Nc1ncc(-c2c[nH]c3ncccc23)s1` (stereo not shown) [NEU-0001239], the HSA % binding in series [2] is given as 96.6%. The compound further yielded a PFI in the series “ChromlogD assay” of 6.23. Further, in series [1] (T. b. brucei growth inhibition, read-out: Tbb pEC50 (converted)), the EC50 was 126 nM. Also, the IC50 on Cytochrome P450 (CYP450) (CYP3A4, VG substrate, read-out: CYP3A4VG pXC50 (converted)) was 5010 nM; on Cytochrome P450 (CYP450) (CYP3A4, VR substrate, read-out: CYP3A4VR pXC50 (converted)), 3980 nM. In series [3], the Papp at 3 h, 100 µM was 4.2 ×10⁻⁶ cm/s. Moreover, the solubility kinetic at 1 h in series [4] was determined as 113 µM (≈ 42.7 µg/mL).
